Laboratory results taken from the supplement of paper PMC8285479.
Counter-ions that a name gives are not always drawn. ± gives the standard deviation of the averaged measurements. Over roughly 1,900 compounds, “normalised cell viability (NPI; 0 = phenylarsine oxide control, 1 = DMSO control)” has its median near 1; the lowest 2% begin near 0.039. Some of the results follow.

Tested on: NCI-H1944
Assay: normalised cell viability (NPI; 0 = phenylarsine oxide control, 1 = DMSO control) (fraction of DMSO control); NCI-H1944 is a non-small cell lung cancer line; higher = more viable cells (less compound toxicity)
Conditions: 6 days
[1] = glucocorticoid arm: hydrocortisone 2.75 uM co-treatment, compound 1 µM
[2] = glucocorticoid arm: hydrocortisone 2.75 uM co-treatment, compound 5 µM
[3] = glucocorticoid arm: hydrocortisone 2.75 uM pre-treated 2 days and continued, compound 1 µM
[4] = glucocorticoid arm: hydrocortisone 2.75 uM pre-treated 2 days and continued, compound 5 µM
[5] = glucocorticoid arm: vehicle, compound 1 µM
[6] = glucocorticoid arm: vehicle, compound 5 µM
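Further: CTB read-out in 384-well plates, mean of triplicate wells, normalised per plate against 1 µM phenylarsine oxide and 0.1% DMSO, compounds added 24 h after seeding.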

Row | Compound | normalised cell viability [1] | normalised cell viability [2] | normalised cell viability [3] | normalised cell viability [4] | normalised cell viability [5] | normalised cell viability [6]
1 | C[N+]1(CCCCC[N+]2(C)CCCC2)CCCC1 [Pentolinium di[L(+)-tartrate]] | 1 ± 0.014 | 1.01 ± 0.025 | 1.005 ± 0.0081 | 1.04 ± 0.084 | 1.01 | 1.01 ± 0.011
2 | O=C(Nc1ccccc1)c1cc([N+](=O)[O-])ccc1Cl | 0.9997 ± 0.0093 | 1.04 ± 0.01 | 0.993 ± 0.012 | 0.862 ± 0.28 | 1.003 ± 0.0058 | 1.01 ± 0.01
3 | Cn1cnc(-c2cc3nccc(Oc4ccc(NC(=S)NC(=O)Cc5ccccc5)cc4F)c3s2)c1 | 1.017 ± 0.0058 | 1.04 ± 0.035 | 1.013 ± 0.0058 | 1.04 ± 0.031 | 0.9993 ± 0.0011 | 0.9933 ± 0.0023
4 | CCC(=O)N1CCN(c2ccc(-n3c(=O)ccc4cnc5ccc(-c6cnc7ccccc7c6)cc5c43)cc2C(F)(F)F)CC1 [Torin 1] | 0.4 ± 0.0087 | 0.383 ± 0.013 | 0.532 ± 0.018 | 0.518 ± 0.022 | 0.223 ± 0.023 | 0.286 ± 0.01
5 | O=c1cc(N2CCOCC2)oc2c(-c3cccc4c3sc3ccccc34)cccc12 | 0.912 ± 0.014 | 0.96 ± 0.026 | 0.924 ± 0.022 | 0.962 ± 0.039 | 1.003 ± 0.0064 | 1.017 ± 0.0058
6 | CC(C)(C(=O)O)c1ccc(C(O)CCCN2CCC(C(O)(c3ccccc3)c3ccccc3)CC2)cc1 (stereo unspecified) [Fexofenadine hydrochloride] | 1.006 ± 0.0069 | 1 ± 0.013 | 0.997 ± 0.013 | 0.99 ± 0.01 | 1.003 ± 0.0058 | 0.9967 ± 0.0035
7 | CC(C)(C(=O)O)c1ccc(C(O)CCCN2CCC(C(O)(c3ccccc3)c3ccccc3)CC2)cc1 (stereo unspecified) [Fexofenadine HCl] | 1.03 ± 0.01 | 1.02 ± 0.021 | 1.037 ± 0.0058 | 1.05 ± 0.011 | 0.999 ± 0.011 | 0.998 ± 0.01
8 | CC(N)=NCCCC[C@H](N)C(=O)O [L-N6-(1-Iminoethyl)lysine hydrochloride] | 0.985 ± 0.014 | 0.968 ± 0.044 | 0.9953 ± 0.0042 | 1.01 ± 0.091 | 0.9713 ± 0.0049 | 0.979 ± 0.0087
9 | CN(C)CCCN1c2ccccc2Sc2ccccc21 [Promazine hydrochloride] | 1.001 ± 0.0085 | 0.9797 ± 0.0065 | 1.03 ± 0.021 | 1.017 ± 0.0058 | 0.9927 ± 0.0011 | 0.997 ± 0.013
10 | Cc1cc(C(C)(C)C)c(O)c(C)c1CC1=NCCN1 [Oxymetazoline HCl] | 0.9847 ± 0.0035 | 0.994 ± 0.01 | 1 ± 0.021 | 0.99 ± 0.029 | 0.9923 ± 0.0075 | 1 ± 0.014
11 | Cc1cc(C(C)(C)C)c(O)c(C)c1CC1=NCCN1 [Oxymetazoline hydrochloride] | 0.989 ± 0.011 | 0.965 ± 0.0062 | 1 ± 0.015 | 1.02 ± 0.084 | 0.9813 ± 0.0067 | 0.992 ± 0.016
12 | C[N+]1(C)[C@@H]2C[C@@H](OC(=O)C(O)(c3cccs3)c3cccs3)C[C@H]1[C@@H]1O[C@@H]12 [Tiotropium Bromide hydrate] | 1.03 ± 0.02 | 1.01 ± 0.011 | 1.03 ± 0.01 | 1.02 ± 0.036 | 1.007 ± 0.0058 | 0.988 ± 0.007
13 | CSc1ccc2c(c1)C(N1CCN(C)CC1)Cc1ccccc1S2 (stereo unspecified) [Methiothepin mesylate] | 1.01 ± 0.011 | 1.02 ± 0.011 | 1.013 ± 0.0058 | 1.05 ± 0.095 | 0.998 ± 0.002 | 1 ± 0.013
14 | O=C(/C=C/c1ccc2ccccc2n1)c1ccncc1 | 1.01 ± 0.013 | 1.067 ± 0.0058 | 1.02 ± 0.01 | 1.02 ± 0.015 | 1.01 | 1.01 ± 0.01
15 | O=C(O)CCC(NC(=O)c1ccccc1C(=O)O)C(=O)O [Phthalamoyl-L-glutamic acid trisodium] | 0.9933 ± 0.0031 | 1.06 ± 0.021 | 0.869 ± 0.23 | 1.03 ± 0.025 | 0.997 ± 0.0052 | 1.006 ± 0.0063
16 | CC(C)N(C[C@H]1O[C@@H](n2cnc3c(N)ncnc32)[C@H](O)[C@@H]1O)[C@H]1C[C@@H](CCc2nc3cc(C(C)(C)C)ccc3[nH]2)C1 | 1.001 ± 0.0085 | 1.073 ± 0.0058 | 0.993 ± 0.015 | 1.03 ± 0.01 | 0.995 ± 0.016 | 0.9977 ± 0.0025
